# Laboratory results as given in PubChem BioAssay AID902 (National Center for Advancing Translational Sciences (NCATS), 2007).
# In all, about 130,000 compounds went through this assay and about 1,900 (1.5%) were called active. The inconclusive results got no clear call from the source; some entries with a clear call stand among them for comparison. Calls follow the shape of the dose curve; as a rule, active = well fitted cell-killing curve with a large enough effect; inconclusive = small, poorly fitted or top-dose-only effect; inactive = no such curve, though single readings can be large or run the other way. A potency beside an inconclusive call is a rough fit, not a confirmed value.
# Test: qHTS Screen for Compounds that Selectively Target Cancer Cells with p53 Mutations: Cytotoxicity of p53ts Cells at the Nonpermissive Temperature; also: nearly all actives have a fitted effect of over 55% in size
# Settings: H1299-p53A138V viability at 39C, ATP luminescence, 24 h; activity change, negative = cell killing: at 46.1 µM (top of the series)
# % is scaled to controls: 0 for no effect and ±100 for the full control effect; potency is read from the fitted curve at half-maximal effect; tags tell the direction and shape of the fitted curve.
SMILES,Potency,"activity change, negative = cell killing"
CCCCN(CCCNC(=O)c1cc(Nc2cccc(SC)c2)nc2ccccc12)Cc1ccccc1,active: 4.47 µM,
CCCN1CCN(CCCNC(=O)c2cc3c(=O)n(CC)c4ccccc4c3s2)CC1,"inconclusive: 12.6 µM [cytotoxic, partial curve, poor fit]",
O=S(=O)(c1cccc(Cl)c1)c1nnn2c1nc(NCc1ccc3c(c1)OCO3)c1sccc12,,inactive: -10.5%
CCCOc1ccc(C2c3c(-c4ccccc4O)n[nH]c3C(=O)N2CCc2ccccc2)cc1OCC (centres undefined),"inconclusive: 25.1 µM [cytotoxic, single point]",
N#Cc1ccc(C23CC4(C2)[C@H](CN(Cc2cccnc2)[C@@H]4c2ccccc2)C3c2ccccc2)cc1 (some centres undefined),"inconclusive: 25.1 µM [cytotoxic, single point]",
CCC(=O)N1CCc2cc(Br)cc(S(=O)(=O)CCC(=O)Nc3cccc(Cl)c3)c21,,inactive: 5.55%
Cc1c(C(=O)N2CCCCC2)sc(NC(=O)C2CC2)c1C#N,,inactive: 1.61%
COc1ccc(N2CCN(S(=O)(=O)c3ccc(F)c(C(=O)Nc4ccccc4Cl)c3)CC2)cc1,"inconclusive: 6.31 µM [cytotoxic, partial curve]",
COc1cccc(CNC(=O)c2cnc3c(-c4ccc(F)cc4)c(C)nn3c2C)c1,"inconclusive: 12.6 µM [cytotoxic, partial curve, poor fit]",
CC(=O)Nc1ccc(NC(=O)c2nc(S(=O)(=O)Cc3ccc(F)cc3)ncc2Cl)cc1,active: 10 µM,
CCOc1ccc(Nc2nc(-c3cccc(Cl)c3)c3c(n2)-c2ccccc2OC3)cc1,active: 10 µM,
CCOC(=O)C1CCCN(C(=O)c2ccc3c(c2)sc2nc(-c4cccc(OC)c4)cn23)C1 (centres undefined),"inconclusive: 31.6 µM [cytotoxic, single point]",
CCc1ccccc1Nc1nn2c(=O)c3ccc(C(=O)NCCC4=CCCCC4)cc3nc2s1,"inconclusive: 6.31 µM [cytotoxic, partial curve]",
CCOc1ccc(-n2c(=O)c3c4c(sc3n(CC(=O)NC(C)CC)c2=O)CCCCC4)cc1 (centres undefined),"inconclusive: 31.6 µM [cytotoxic, single point]",
O=C1C=CC(=O)c2c(O)c(Cl)c(Cl)c(O)c21,"inconclusive: 31.6 µM [cytotoxic, single point]",
CCn1c(C(=O)NCCc2ccc(S(N)(=O)=O)cc2)cc2sc(Cl)cc21,"inconclusive: 31.6 µM [cytotoxic, single point]",
O=C(O)CSc1nnc(-c2ccco2)o1,,inactive: 8.8%
CCc1nc(SCC(=O)c2cc(C)ccc2C)n[nH]1,,inactive: 16.1%
COc1cccc(CSc2nc3ccncc3n2CC(=O)Nc2ccc(OC)c(OC)c2OC)c1,"inconclusive: 25.1 µM [cytotoxic, partial curve, poor fit]",
